± gives the standard deviation of the averaged measurements. The list shows a part of the results.

Results on 44 sequences are retold here after the supplement of paper PMC11417369.

This test has as its system PfAP2-G AP2 domain (GST-tagged). Put plainly: gcPBM binding intensity (ln(normalized median fluorescence intensity)); higher = stronger DNA binding. The gist of the method:
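Binding intensity is the highest Masliner-normalised natural-log median intensity over replicate spots in either probe orientation. To obtain it, GST-tagged P. falciparum DNA-binding domains made in E. coli were incubated for 1 h on an Agilent 4 × 180k array of primer-extended double-stranded 36-bp intergenic genomic probes plus negative controls. Detection used Alexa488 anti-GST antibody with scanning at 488 nm.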
As for “AAAAAAATCACATAAAATACTTTATTTTATATTATA [GTGCAC_negctrl_site372]”, the “gcPBM binding intensity (ln)” value was determined as 9.78 ± 0.18. As to “TACTTTTTTTTTTTTTTTTTTTTTTTTTCCCTTTTT [CACACA_negctrl_site761]”, the “gcPBM binding intensity (ln)” value amounted to 9.84 ± 0.28. Under TTTTATTTATATATAGTGCATATTATTATAAAACAA stands 9.98 ± 0.38; under “GTTTATTTATTATAATGTACATTAGTCTGAGGAGTT [XGTACX_site4035]”, 11 ± 0.66; under “ATATATATATATATATGTACATATGTTAATCTGCAT [XGTACX_site1068]”, 11.2 ± 0.7. Consider “CTTTTTTTCCATTAAGCATGCACATTCATATTTACT [TGCATGCA_site170]”, for which the “gcPBM binding intensity (ln)” value was 10.3 ± 0.17. As to “ATAGAAGAAATATGCACACATACATTGAAATGTTTT [CACACA_site321]”, the “gcPBM binding intensity (ln)” value was 9.99 ± 0.042.

In the case of “CACATACACATACAAACACACATTAGATATAAATAT [CACACA_site6854]”, the “gcPBM binding intensity (ln)” value came out at 9.99 ± 0.18.

On to “AAAAAAAATTAATAGGGTACATGAAAAGTGGAATAT [XGTACX_site618]”, for which the “gcPBM binding intensity (ln)” value came out at 11.2 ± 0.61. Regarding “TGAACACGCACAAATACACACAAAAAAAATAAATAA [CACACA_site6257]”, the “gcPBM binding intensity (ln)” value was determined as 10.2 ± 0.4. For “CCATTAAGACACATTGCACACGTGCACCCATAGAAA [CACACA_site4388]”, the “gcPBM binding intensity (ln)” value was 10.7 ± 0.6. Under “AAAAAAAAATTAAAAACACACATATAAATAAATATA [CACACA_site6845]” stands 9.62 ± 0.2; under “AACAAAATAGGGAACACACACATGTCAATATATAAA [CACACA_site2596]”, 10.4 ± 0.3; under “TTTTTTTTTAAATAATGTACTTTTCATTATTTAGAT [XGTACX_site1706]”, 11.2 ± 0.73. On to “TTTTTATTTATTAATACACACACACCCACCCACAAA [CACACA_site7965]”, for which the “gcPBM binding intensity (ln)” value was 10.9 ± 0.67. For the sequence “AAAGAAAAAAATAATTGTACATTTATATTTAATTTA [XGTACX_site8003]”, the “gcPBM binding intensity (ln)” value came out at 10.8 ± 0.54. As to “AGATATAATAAATATACACACATATATATATATATA [CACACA_site962]”, the “gcPBM binding intensity (ln)” value amounted to 10.2 ± 0.53. In the case of “TTTTTTTTTTTTTTTTGTACGTAATATATGATTAAT [XGTACX_site6876]”, the “gcPBM binding intensity (ln)” value amounted to 11.4 ± 1.1. The result for “CATTTTATCAAAAGTGGTACAACCCTTTCAAAAAAT [XGTACX_site341]” reads 11.4 ± 1.1; that for “AAATTACTTTCACAGTGTACTTGGAAAAAAAAAAGA [XGTACX_site1046]”, 11.3 ± 0.8; that for “TTTAACATAAATTAAACACACAATATAATACATTAA [CACACA_site1237]”, 9.83 ± 0.085.

For “TAATTTTATATATGCACACAAAATATGTTCATATAA [CACACA_site4076]”, the “gcPBM binding intensity (ln)” value was determined as 10.3 ± 0.28. Regarding “TGAAAAATGTTGATGTGTACTTATATAGTGTGTTAA [XGTACX_site2100]”, the “gcPBM binding intensity (ln)” value was found to be 11.3 ± 0.82. Under “TTTTTTTTTTTTGTCACACATATATTTGTATTTATA [CACACA_site5234]” stands 10 ± 0.41; under “TGATATTTATAATAAATATTATAATAAAATCAAACA [XGTACX_negctrl_site219]”, 9.725 ± 0.021. Under “ATATATATTTAAATGTGTACTCATTTATTTTATGTC [XGTACX_site4984]” stands 11.5 ± 0.9; under “ATAGTATAACAGCAATGTACACATATTTGTGTATAT [XGTACX_site7899]”, 11.3 ± 0.67.

As for “TATATATATAAACACACACACACATATATATATATT [CACACA_site8814]”, the “gcPBM binding intensity (ln)” value is 9.94 ± 0.16. In the case of “TTTTTTTTTTTTTGCACACACATATATAGATATATA [CACACA_site7784]”, the “gcPBM binding intensity (ln)” value came out at 10 ± 0.4. As to “ATAAAATTGTTTAAATGTACATATGAACAGTCAGTA [XGTACX_site5140]”, the “gcPBM binding intensity (ln)” value worked out at 11.4 ± 0.69. With “ATATATGTAATAAATAGTACACACACACATATATAT [XGTACX_site2817]”, the “gcPBM binding intensity (ln)” value came to 11.5 ± 1. Under “ATATATATTTTTATTTGTACATAATTTTTTTTGTGA [XGTACX_site6378]” stands 11.1 ± 0.67; under “ATATATTAATTTAATTGTACGAATAAAAAAAAAAAA [XGTACX_site223]”, 10.9 ± 0.83.

As to “TATATACATTTATGTACACACACATATATGTATATT [CACACA_site8971]”, the “gcPBM binding intensity (ln)” value was found to be 11.4 ± 0.99.

“AAAGCACCCAAGAATACACACAAATATTATAAAAAA [CACACA_site111]”: the “gcPBM binding intensity (ln)” value came to 10.2 ± 0.33. Take “ACGTATTAGATAAATACACACACAAGCATATATTTT [CACACA_site9135]”: the “gcPBM binding intensity (ln)” value was 9.97 ± 0.16.

For “TAATGTATTATATTTAGTACATATAAAAATAATTTT [XGTACX_site6886]”, the “gcPBM binding intensity (ln)” value worked out at 11.2 ± 0.72. Consider “ATATATATAATATAATGTACATATATTTTATTTTTA [XGTACX_site3819]”, for which the “gcPBM binding intensity (ln)” value is 11.1 ± 0.7. As for “TTTCATCTATATGAAACACACAAAGGAAAAAAAATT [CACACA_site7869]”, the “gcPBM binding intensity (ln)” value was 10.3 ± 0.19. Under ATATATATTGTACTAGTGCATATATATACATATATT stands 11.2 ± 0.83; under “ATAAATAAAAACACAAAACAAAACAAAACAAAACAA [CACACA_negctrl_site1257]”, 9.745 ± 0.007; under “TAATAAATGGCTAGTTGTACAGAAATATAAATATTA [XGTACX_site4579]”, 11.1 ± 0.73. The result for “AGATTCAAAAATAAAACATGCAAAAATAAAACGTGC [TGCATGCA_site501]” reads 9.95 ± 0.12. “TTTTTTTTGTGTATTTGTACATAATATATATATATA [XGTACX_site7092]”: the “gcPBM binding intensity (ln)” value was 10.9 ± 0.49.
